# Measured values from the supplement of paper PMC10126150.
# Values marked as one replicate rest on one cluster of the flow cell; about a third of the high ones do not repeat.
# Tested on: ATP
# Experiment: switch fluorescence ratio, 500 uM ATP over buffer (Cy3 cluster intensity, sum of 5 cycles each) (fold (ratio)); higher = stronger signal-on switching upon ATP binding; sequences stand for … in TCGTCGGCAGCGTCAGATGTGTATAAGAGACAGTTTTTTTTTTTTTTTTTTTTTTTTT…TC
# Settings: aptamer strand: ATP DNA aptamer (quencher-CACCTGGGGGAGTATTGCGGAGGAAGG + anchor), 100 nM annealed; ATP concentration: 500 uM; one replicate
# Outline: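 Cy3-labelled switching-strand clusters on a modified Illumina MiSeq flow-cell were annealed to 100 nM quencher-labelled ATP aptamer and imaged first in selection buffer, then after 15 min with 500 uM ATP at 22 °C. NaOH stripping and re-annealing separated each of five buffer/ATP cycles, and clusters outside 100-1000 RFU were excluded. The fluorescence ratio sums target-cycle Cy3 intensity over buffer-cycle Cy3 intensity per cluster and averages it per switch-domain sequence.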
# 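Also: ATP exposure 15 min at 22 °C before imaging.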
row,Sequence,switch fluorescence ratio
1,TTCGCAAAGG,2.02
2,CCATGGTAAG,0.988
3,GCAAGATCTA,1.01
4,AGGCGGGAGA,1.03
5,ACAGAACGTG,1.14
6,CATACCTTGT,1.01
7,TGGTTGTGAA,0.983
8,CCCCATGACT,1.05
9,CTGTGAAATG,1.03
10,GGATATCCGT,1.03
11,GGAGACACGG,0.982
12,TCTAGGGATC,0.979
13,CGTAAGGAAG,1.02
14,CTACTACTG,1.04
15,GGTGTTCTTG,1.01
16,TGCTCAAATG,0.98
17,TCATCGATCC,1.02
18,ACCTAGATTG,1.03
19,ATGATCCCAA,1.05
20,TTGGGTCGCC,1.01
21,ATGTCATTTG,1
22,CCGCTTATTA,2.63
23,AGTGGAGGCT,1.01

row,Sequence,switch fluorescence ratio
1,AGCAAGTTTC,1.21
2,CTAAAATAGT,0.975
3,ATGTGGTTA,0.972
4,TCAGGTAACT,1.05
5,AAAGGCTACG,0.972
6,TCTATGGCAA,1.61
7,TTCTTCAATT,1
8,TTCGAGCAGG,1.14
9,GGGGTCAGAA,0.963
10,TGCGAAAGTT,0.975
11,ATGGCCATGG,0.942
12,CCATGCGTCA,1
13,TCTATGGAAC,1.06
14,AACGTTCAAG,1.01
15,GTGCGTCCGC,1.08
16,AGTTATAATA,0.998
17,ATTTCCCCTT,1.06
18,ATTGGAAGGT,0.996
19,TCGAACTAAA,1.03
20,CCATGTGGTG,1.08
21,TGCGTAATGG,1.34
22,ACCAGTAACG,1.05
23,GTAAGTCATG,1.02

row,Sequence,switch fluorescence ratio
1,ATACTTACGA,1.37
2,AGGTGGCTGT,0.958
3,ATTACTTCGG,0.964
4,GATGCGACTA,1.01
5,TTTTATTCGA,0.999
6,TGTTGGCATT,0.983
7,TAACGACTAC,1.29
8,TGTCAATGCG,0.985
9,ATACTGCGCA,1.19
10,CGCACTGGGC,1.02
11,ACTCAGTCCT,1.09
12,ACTAATCTG,1.09
13,GGCGCACCTA,1.01
14,TGACTGCAGT,1.02
15,AGGTGTAGCT,0.96
16,TACTATGTCC,0.996
17,TCGTATATGT,1.01
18,ACAGTGGCGA,0.97
19,AGTTATATAT,1.06
20,CTGCCCCGGA,1.2
21,GAGTAAGGAA,1.04
22,GGGTTTGGAG,0.992
23,AATCGATGCC,1.02

row,Sequence,switch fluorescence ratio
1,CCTCTTGGGT,0.999
2,AGGCTAGGGA,0.954
3,TCTGATAATT,0.977
4,CCTTGATGTA,0.97
5,GACTATTGAC,1.07
6,AACCGGGAGG,0.989
7,ACTTTGAGA,1.04
8,ACCAGTGTTG,1.02
9,AGGTAGCGTA,0.969
10,TTGACGTATC,2
11,CCACCATCCG,1.24
12,CATTTTAGTC,1.06
13,AATACTCTTT,1.04
14,GATATTTCAC,1.03
15,ATTTAGAGTT,1.01
16,AATAATTG,0.982
17,AACTAAGTAC,1.26
18,TGGGTCGGCG,1.03
19,TTGCCGGTAC,2.16
20,ATAACAGGTC,1.1
21,TAAGATGAC,1.02
22,TATTGCGTAC,2.34
23,TATTACTACT,1.06

row,Sequence,switch fluorescence ratio
1,CCGGGGTTTC,1.11
2,AGGTTCCTC,1.07
3,TGGCCATATG,0.989
4,CGTGTCGCGG,0.956
5,TTGGGCTAGC,1.02
6,GCGATTAATT,1.01
7,TCCGGTATTC,1.42
8,GATCTCCTTG,0.988
9,CAGAGAGGGC,1.02
10,TTAAGGTGCG,0.978
11,TTTTCCTCGG,1.16
12,CGCGTAGGCC,0.946
13,AATCGGACGG,1.04
14,GTGACCTATG,0.992
15,GAGTAAAGGA,0.988
16,CCAGAAGGTA,0.996
17,TAATGGGCCT,1.01
18,ATCGGTGTCT,0.948
19,TGTACGGGG,1.01
20,TAGTGTAGTG,0.991
21,ACATTTGCAT,0.981
22,ATCTTCCCCA,1.25
23,GCGAGTCTTC,0.977

row,Sequence,switch fluorescence ratio
1,CGGATCGTGA,0.999
2,ACGGGTGGAT,0.961
3,TGGGAGCTAC,1.7
4,AATGGATTCG,0.966
5,AGTAGGGATT,1.2
6,ACCCCATG,1.27
7,TGGCGTGTGG,1.04
8,TACAGTCCCT,1.04
9,TACCATG,1.01
10,GGGCTACTGA,0.994
11,CGTAGAGCCA,0.963
12,AAAATGCGTA,0.975
13,CCGTCGGTTG,1.08
14,CAGGTGAGTA,1.19
15,GATTATGACT,1.01
16,GCTCGCTGCG,0.981
17,GTACCCGTTG,1.02
18,ACTTACCGGG,1.19
19,AATATATTG,0.959
20,CGCTCTAGG,1.04
21,ACCGGGTAAG,0.979
22,TCTAGTAACC,1.06
23,CTTAGTCGCT,1.01

row,Sequence,switch fluorescence ratio
1,ATCGATGCTG,1.06
2,AATGTCATTA,0.973
3,TTACAGTCCC,1.01
4,TTCCCGCGTC,3.28
5,TTCCGTGCTC,1.13
6,CTGGAAGCTT,0.997
7,ATGCAGGTTG,1.02
8,CGTGTGGTGA,0.994
9,TACCCAACGG,1.23
10,CGGGAAACTA,1.01
11,ATCGGACCCC,1.09
12,TACCGCTTTA,1.34
13,ACTGGCAAGC,1.66
14,TGGTGTGCGG,1.08
15,GTTGCAGGG,0.986
16,CCGTTGGCGC,1.04
17,TAAATTTACT,1.06
18,ATTTCAATAA,1
19,TGTCTGTAAA,1.04
